# Data reported in the supplement of paper PMC4466236.
# In all, about 33,000 sequences were measured (“E-score (dimensionless, -0.5 to 0.5)”: median about -0.058, highest 2% from about 0.35 on). Some of the results follow.
# System: MvaT
# Assay: PBM 8-mer E-score (mean of HK and ME arrays) (E-score (dimensionless, -0.5 to 0.5)); higher = stronger relative binding preference; most listed sequences are background and not binding sites
# Method in brief: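 Full-length P. aeruginosa MvaT, with glutathione S-transferase fused to its N-terminus (cloned into pTH6838 by isothermal assembly), was tested by protein binding microarray using a previously described protocol. Two universal double-stranded 60-mer arrays (ME and HK) were used, each with a constant 25-mer primer region and a variable 35-mer region covering all 8-mers. The rank-based 8-mer E-score (-0.5 to 0.5) is the mean of the two arrays, parsed with a custom Python script.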
row,Sequence,PBM 8-mer E-score
1,ATGTGCGA,0.0665
2,GTAGGCAA,-0.171
3,AGAGGCTA,-0.159
4,GTTCCTCA,-0.108
5,AGCAATAG,0.125
6,AACATACA,0.36
7,CGGCTTAA,0.0662
8,ACCGTGCG,-0.0363
9,CCCCACAG,-0.247
10,GATCTACC,-0.179
11,ACGTCGTG,-0.174
12,CATTCTAC,-0.00107
13,AACGACTT,0.133
14,CTTAGAAG,0.0923
15,AGCGTATG,-0.0614
16,GACTCCTA,-0.164
17,AGCATCGC,-0.152
18,AAACGTTG,0.0321
19,CCCGGGTA,-0.242
20,CAGTCATG,-0.105
21,CAATACTA,0.172
22,AACCCTGC,-0.0713

row,Sequence,PBM 8-mer E-score
1,ACAATCCT,0.0627
2,CACATATG,0.196
3,ATGTGTCA,0.135
4,CTGGCTAC,-0.112
5,CGGGCTGC,-0.217
6,GATTTATA,0.398
7,AATAATCC,0.26
8,GTACCTAA,0.00303
9,ACCCGCCC,0.0308
10,AACTCTGG,0.05
11,CGTAGCTA,-0.101
12,ATTGCTGG,0.05
13,ACGTCTTG,-0.173
14,TATCCACA,0.132
15,CTATGGAC,-0.203
16,AGTTTCCA,0.0701
17,ATCGCTTA,0.0374
18,GACGGATA,-0.0625
19,AGATTCGG,-0.199
20,AGCACATC,-0.127
21,CGGGGGAG,-0.241
22,TGCACTAA,0.122

row,Sequence,PBM 8-mer E-score
1,ACTATTGA,0.254
2,GAGTATGA,0.041
3,AGTGGATA,0.0913
4,TCCGATAA,0.0217
5,AGACGGGG,-0.261
6,GGCGAAGA,-0.123
7,CTGAATAA,0.226
8,TAATTATA,0.462
9,CACGGTAG,-0.114
10,ACCACTTG,0.0527
11,CAAGGATA,0.0575
12,CCAGCTTC,-0.327
13,CGCACTAC,0.0544
14,CCCCTACG,-0.245
15,CCCAAAAC,-0.178
16,AGCCCCTC,-0.345
17,CATTATGA,0.214
18,CACTAGTG,0.0114
19,GTCGTTAA,0.0615
20,CTTCCATC,-0.132
21,GATCTTGC,0.0159
22,CGACCAGA,-0.0821

row,Sequence,PBM 8-mer E-score
1,ATCAGTTG,0.0552
2,AAGCGCGA,-0.0717
3,GACATAGC,-0.277
4,ATCGCACG,-0.00549
5,GAGCGATC,-0.187
6,TCGGCAAA,-0.0307
7,AATAGACT,0.194
8,ACTCTCCC,-0.09
9,ACCAAGGA,-0.224
10,ATCGGGGC,-0.228
11,CAGTACTA,0.148
12,CCGTGTAC,-0.053
13,ATAACCCC,-0.0667
14,ACATGAGT,0.0118
15,ACTTGAGC,-0.0597
16,GATTTTAC,0.175
17,GTCGTGGA,0.039
18,AATTCCTC,0.0211
19,CCTATATC,0.0838
20,TCTGCGCA,-0.00775
